The values that follow come from publication PMC4336329 (PLoS ONE, 2015).

Screen size: about 310,000 compounds; about 14,000 (4.5%) showed an effect of 50% or more. The effect is printed as a negative number. Some of the results follow.
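Further: peak tail current of the secondary pulse compared with the same well before compound.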

Sequence of human ether-à-go-go-related gene (hERG) potassium channel (Q12809 whole entry, looked up): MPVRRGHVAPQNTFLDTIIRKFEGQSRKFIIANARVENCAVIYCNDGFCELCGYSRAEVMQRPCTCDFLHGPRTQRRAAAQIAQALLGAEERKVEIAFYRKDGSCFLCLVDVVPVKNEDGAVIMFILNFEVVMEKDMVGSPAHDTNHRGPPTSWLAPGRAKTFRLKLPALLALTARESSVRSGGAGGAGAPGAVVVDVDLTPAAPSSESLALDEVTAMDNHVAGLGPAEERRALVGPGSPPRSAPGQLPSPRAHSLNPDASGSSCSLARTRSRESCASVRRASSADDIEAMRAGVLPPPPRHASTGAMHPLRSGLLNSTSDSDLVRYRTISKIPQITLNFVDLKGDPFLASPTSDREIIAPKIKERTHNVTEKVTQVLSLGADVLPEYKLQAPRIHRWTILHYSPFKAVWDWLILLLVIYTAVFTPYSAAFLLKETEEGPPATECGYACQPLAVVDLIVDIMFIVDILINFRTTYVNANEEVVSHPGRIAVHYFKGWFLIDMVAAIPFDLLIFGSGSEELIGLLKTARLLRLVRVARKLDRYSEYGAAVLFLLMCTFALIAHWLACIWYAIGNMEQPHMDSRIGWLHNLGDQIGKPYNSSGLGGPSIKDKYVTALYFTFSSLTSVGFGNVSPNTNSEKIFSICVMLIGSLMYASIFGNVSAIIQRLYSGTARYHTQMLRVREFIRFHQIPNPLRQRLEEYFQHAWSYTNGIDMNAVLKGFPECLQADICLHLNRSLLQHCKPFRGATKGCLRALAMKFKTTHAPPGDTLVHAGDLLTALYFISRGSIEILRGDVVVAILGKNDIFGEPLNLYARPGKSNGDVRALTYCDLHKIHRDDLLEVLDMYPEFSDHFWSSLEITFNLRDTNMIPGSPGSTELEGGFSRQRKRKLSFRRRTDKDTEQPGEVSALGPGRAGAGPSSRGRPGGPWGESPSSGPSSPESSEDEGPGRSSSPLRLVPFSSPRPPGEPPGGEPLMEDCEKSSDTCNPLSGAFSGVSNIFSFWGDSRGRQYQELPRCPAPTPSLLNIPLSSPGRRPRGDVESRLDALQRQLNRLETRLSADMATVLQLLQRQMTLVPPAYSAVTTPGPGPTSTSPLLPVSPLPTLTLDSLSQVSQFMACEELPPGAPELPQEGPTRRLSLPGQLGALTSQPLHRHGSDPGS

The test has as its target human ether-à-go-go-related gene (hERG) potassium channel (human, UniProt Q12809). As to the kind of experiment: primary screen, population patch clamp on CHO cells stably expressing hERG.
Take `CCCc1nc(N2CCCC2)c(C#N)c2c1CCCC2`: the “hERG current change (%, negative = inhibition) at 10uM” value turned out to be 4.06%.
Regarding `O=C(NCCN1CCN(c2ccccc2)CC1)C1CCCN(S(=O)(=O)c2cnc[nH]2)C1` (stereo not shown), the “hERG current change (%, negative = inhibition) at 10uM” value worked out at 6.71%.
As to `CCOC(=O)c1nnn(-c2nonc2-n2cccc2)c1CN1CCC(C)CC1`, the “hERG current change (%, negative = inhibition) at 10uM” value worked out at 0.67%.
Then `CC1=C(C(=O)Nc2cccc(F)c2)C(c2ccsc2)C2=C(CC(C)(C)CC2=O)N1` (stereo not shown), with -19.7%; and `Cc1[nH]n(C(N)=S)c(=O)c1N=Nc1cc(C(F)(F)F)ccc1Cl`, with 21.4%.
As for `Cc1ccc(C(CC(=O)c2ccc(Cl)cc2)C(=O)O)cc1` (stereo not shown), the “hERG current change (%, negative = inhibition) at 10uM” value amounted to 8%.
Take `O=C(CCN1C(=O)c2ccc(Br)cc2C1=O)NC1CCCCC1`: the “hERG current change (%, negative = inhibition) at 10uM” value was -9.86%.
Consider `Cc1ccc(CC(=O)N(C)CC(=O)N(CC(C)C)c2c(N)n(CC(C)C)c(=O)[nH]c2=O)cc1C`, for which the “hERG current change (%, negative = inhibition) at 10uM” value is -2.54%.
For `Cc1onc(-c2c(F)cccc2Cl)c1C(=O)NC(=S)NC1CCSC1=O` (stereo not shown), the “hERG current change (%, negative = inhibition) at 10uM” value came to 5.43%.
Consider `O=C(NCCCN1CCCCC1)C1CCN(S(=O)(=O)N2CCC3(CC2)OCCO3)CC1`, for which the “hERG current change (%, negative = inhibition) at 10uM” value was 24.9%.
Then `CC(NC(=O)c1cc2ccccc2oc1=O)c1ccc(O)cc1` (stereo not shown), with 2.49%; and `CCc1ccc(N(C(=O)c2csnn2)C(C(=O)NCc2ccccc2)c2ccco2)cc1` (stereo not shown), with -24.9%; and `COc1ccc(CN2CCNC(=O)C2CC(=O)NC2CC(C)(C)CC(C)(C)C2)cc1OC` (stereo not shown), with 3.28%.
With `FC(F)(F)c1cccc(-n2nnnc2C2(N3CCOCC3)CCCCC2)c1` the figure was -18%.
With `Cn1nc(-c2ccccc2)c(CN2CCN(c3ncccn3)CC2)c1Cl` the figure was -2.27%; with `Cc1ccccc1C(=O)Nc1c(C(=O)N2CCCC2)cnn1-c1ccccc1`, 4.93%; with `CCCCN(CC)CCNC(=O)c1cc2c(=O)[nH]c3ccccc3c2n1C`, -9.95%.
As for `COc1cc(C(=O)NNC2=CC(=O)CC(C)(C)C2)cc(OC)c1OC`, the “hERG current change (%, negative = inhibition) at 10uM” value was 0.946%.
As to `O=C(c1ccc(C(F)(F)F)cc1)n1ccc(-c2cccs2)n1`, the “hERG current change (%, negative = inhibition) at 10uM” value is 17.6%.
Then `CCOCC(=O)N1CCN(c2ccc([N+](=O)[O-])cc2)CC1`, with -71.8%; and `CCN1C(=O)C2(C(C#N)=C(N)Oc3c2c(C)nn3-c2ccccc2)c2ccccc21` (stereo not shown), with -21.3%.
Then `C/C(=N\NC(=O)c1ccccc1)c1c(O)n(C2CCCCC2)c(=O)[nH]c1=O`, with 16.3%; and `COc1ccc(CN2CCSc3sccc3C2=O)cc1`, with -29.3%.
Then `CCCOc1ccc(C(=O)Nc2ccc(S(=O)(=O)NC3=NCCCCC3)cc2)cc1`, with 10.2%; and `Cc1ccccc1OCC(=O)OCC(=O)c1ccc(OC(=O)c2ccccc2)cc1`, with -7.14%; and `COC(=O)c1ccc(NC(=O)CCOc2ccccc2)cc1`, with 6.91%.
Consider `COCCCNC(=O)CN1C(=O)COc2ccc(S(=O)(=O)N3CC(C)CC(C)C3)cc21` (stereo not shown), for which the “hERG current change (%, negative = inhibition) at 10uM” value turned out to be 9.86%.
Then `COCCNC(=O)C(c1cccnc1)N(Cc1ccc(C)cc1)C(=O)Cn1nnc2ccccc21` (stereo not shown), with 13.3%; and `CN1CCN(C(=O)c2cc(Cl)cc(Cl)c2)CC1`, with 7.3%.
For `COc1ccc(-c2csc(N(CCc3ccc(OC)c(OC)c3)C(=O)COc3ccccc3)n2)cc1`, the “hERG current change (%, negative = inhibition) at 10uM” value is 25%.
With `COc1cc(NC(=O)C2CCC(CNc3c(N4CCCCC4)c(=O)c3=O)CC2)cc(OC)c1` (stereo not shown) the figure was 11.3%.
Then `COc1ccc(CCNC(=O)CCn2c(=O)oc3ccccc32)cc1`, with -20.5%.
Then `COc1ccc(N(C(=O)CNC(=O)c2cccs2)C(C(=O)NCC2CCCO2)c2ccccc2)cc1` (stereo not shown), with 14.7%.
Regarding `COC(=O)c1nn(-c2c(C)n(C)n(-c3ccccc3)c2=O)cc1O`, the “hERG current change (%, negative = inhibition) at 10uM” value turned out to be 5.84%.
For the compound `FC(F)(F)c1ccccc1CNCc1ccncc1`, the “hERG current change (%, negative = inhibition) at 10uM” value turned out to be 4.43%.
With `Cc1ccc(-c2cc(C(=O)NC3=NCCS3)c3cc(Br)ccc3n2)o1` the figure was 6.43%; with `Cc1ccc(S(=O)(=O)/N=C(/NC(=S)Nc2ccccc2)c2ccccc2)cc1`, 6.65%; with `COc1cccc(NC(=O)C2CC(=O)N=C(N)S2)c1` (stereo not shown), 9.3%.
Then `CCC1(C)CC(CCNCc2ccc(N(C)C)cc2)(c2ccc(F)cc2)CCO1` (stereo not shown), with -8.58%.
Then `CNC(=O)c1ccc(Nc2nc(-c3ccccc3)nc3ccccc23)cc1`, with 15.9%.
Regarding `CCn1c(C)nc2cc(C(=O)NNS(=O)(=O)c3cc(Br)ccc3Br)ccc21`, the “hERG current change (%, negative = inhibition) at 10uM” value was -11.9%.
Then `Cn1cc(CNCc2cn[nH]c2-c2ccc(F)cc2)c(-c2ccc3c(c2)OCCO3)n1`, with -21.6%.
With `Cc1ccc(NC(=O)C2=C(c3ccccc3)S(=O)(=O)CCS2(=O)=O)cc1` the figure was 4.9%.
